Drawing on PubChem BioAssay AID485344 (National Center for Advancing Translational Sciences (NCATS), 2010), this text covers inhibition for 96 compounds.

The structures appear in SMILES notation. In all, about 340,000 compounds went through this assay and about 6,900 (2%) were called active. Cut-off read from the data, not from the text of the source: active = inhibition above about 30%; inactive = below that, where a call was filed. Only a part is listed here, and it is no random draw. The source gives no active or inactive call for entries shown without one.

Chain of UniProt P14416 (P14416 whole entry, looked up): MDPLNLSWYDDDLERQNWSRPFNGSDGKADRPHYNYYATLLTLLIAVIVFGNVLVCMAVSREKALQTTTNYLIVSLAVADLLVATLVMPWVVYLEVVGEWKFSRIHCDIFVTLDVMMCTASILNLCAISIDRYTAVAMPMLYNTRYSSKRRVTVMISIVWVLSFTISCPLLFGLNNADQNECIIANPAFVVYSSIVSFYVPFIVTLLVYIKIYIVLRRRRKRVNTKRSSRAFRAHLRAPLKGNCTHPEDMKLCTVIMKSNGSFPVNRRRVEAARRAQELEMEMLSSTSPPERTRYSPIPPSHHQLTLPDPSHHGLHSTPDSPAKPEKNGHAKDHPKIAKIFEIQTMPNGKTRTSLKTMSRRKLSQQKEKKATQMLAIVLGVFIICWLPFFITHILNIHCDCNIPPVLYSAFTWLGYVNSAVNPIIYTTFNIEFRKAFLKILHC

In this assay the target is D(2) dopamine receptor (Homo sapiens) (UniProt P14416). Briefly: HTS Assay for Allosteric Antagonists of the Human D2 Dopamine Receptor: Primary Screen for Antagonists. Note: 0% is about no effect. The note with it: HEK293 TREx D2 cells, calcium flux, dopamine EC80; at 10 µM; stronger effect = higher value. The essentials:
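Cells plated overnight at 30 C with tetracycline; no-wash calcium dye, 30–90 min RT; 10 s baseline; compound pinned; 180 s read; EC80 dopamine added; another 180 s read.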
(In general: A change in cytosolic calcium serves as a functional read-out for many receptors and channels.)
A word on the inhibition: it is the relative decrease from the control value, in per cent. Take `CCN(c1ccccc1)S(=O)(=O)c1cnc[nH]1`: the inhibition was active: 34.5%.
To `N#Cc1c(-c2ccccc2)cc(-c2ccccc2)nc1SCC(O)CS(=O)(=O)Cc1ccc(Cl)cc1` (stereo unspecified) belongs 0.445%; to `CCCNC(=O)c1ccc2c(c1)N=C(C)c1c(C)ccc(C)c1S2`, -10.3%; to `CCNc1ccc(S(=O)(=O)N2CCCCC2)cn1`, active: 33.1%.
To `O=C(NCc1ccc(Cl)cc1)C(=O)NCC(c1cccs1)S(=O)(=O)c1ccc(Cl)cc1` (stereo unspecified) belongs -17.5%; to `CCOc1ccc(CCNC(=O)C2CCN(c3ncnc4c3nc3n4CCCCC3)CC2)cc1`, 7.42%; to `O=C(Nc1ccccc1F)c1nc(S(=O)(=O)Cc2ccccc2F)ncc1Cl`, -25.9%.
Next, `CCN(C(=O)c1noc2c1COc1ccc(C)cc1-2)c1cccc(C)c1`: 9.77%; `Clc1cccc(-n2ncc3c(NC4CCCCC4)ncnc32)c1`: 15.3%.
Regarding `CCOc1ccc(-c2nnc(SCC(=O)NC3CCCC3)nc2-c2ccc(OCC)c(OC)c2)cc1OC`, the inhibition is -23.2%.
`Cc1c(C(=O)Nc2ccc3c(c2)OCCO3)sc2nc(-c3ccccc3)cn12`: the inhibition was active: 72.8%.
Turning to `CC(C)(C)OC(=O)N1CCC(c2c(C(=O)NCCN3CCC(Cc4ccccc4)CC3)cnn2-c2cccc(Cl)c2)CC1`, the inhibition is -6.28%.
To `Cc1cccc(N2CCN(C(=O)c3cc(S(=O)(=O)N4CCC(C)CC4)cn3C)CC2)c1C` belongs 0.617%; to `COc1ccccc1CNC(=O)c1ccccc1NC(=O)c1nsc2ccccc12`, -21.5%; to `Cc1ccc(-n2nc3ccc(NC(=O)c4oc5ccccc5c4C)cc3n2)cc1`, 2.27%.
Turning to `CCOC(=O)c1[nH]c2ccccc2c1NC(=O)c1ccccc1OCC`, the inhibition was -8.98%.
To `Cc1ccccc1NC(=O)CCC(=O)N1CCSc2ccccc21` belongs -10.6%.
Next, `CC(=O)N1c2ccc(S(=O)(=O)NCC3CCC(C(=O)NC(C)(C)C)CC3)cc2CC1C` (stereo unspecified): 4.42%.
With `Cc1ccc(S(=O)(=O)N(CC(=O)Nc2ccc(C(C)C)cc2)Cc2ccccc2)cc1`, the inhibition is 1.95%.
In the case of `O=C(NCC(c1cccs1)S(=O)(=O)c1cccs1)c1ccccc1F` (stereo unspecified), the inhibition is -17.4%.
As for `Cc1cccc(C(=O)Nc2cccc(C(=O)N/N=C/c3ccc4c(c3)OCO4)c2)c1`, the inhibition was active: 37.3%.
Next, `Clc1ccccc1N1CCN(c2ncnc3c2c(-c2ccccc2)cn3-c2ccccc2)CC1`: -13.9%; `O=C(Cn1ncc2c3ccccc3n(Cc3ccc(Cl)cc3)c2c1=O)N1CCCCCC1`: -0.653%.
To `COc1cccc(-c2cn3c(n2)sc2cc(C(=O)NC4CCCCCC4)ccc23)c1` belongs 14.8%; to `CCCOC(=O)Nc1nnc(CCC)s1`, active: 44%; to `COc1ccc(Br)cc1CNC(=O)Cn1c(=O)c2cccn2c2ccc(F)cc21`, 0.51%.
To `Cc1cc(C)c2oc(-c3cccc(NC(=O)c4ccc(Br)o4)c3)nc2c1` belongs 8.89%; to `Cc1ccccc1Cn1cc(CCC(=O)NC(C)c2ccccc2)c2ccccc21` (stereo unspecified), 11.3%; to `CCOc1ccc(NC(=O)c2oc3ccccc3c2NC(=O)Cc2ccc(F)cc2)cc1`, 1.9%.
With `CCC(C)c1ccc(OCC(=O)Nc2cccc(-c3nc4ncccc4o3)c2)cc1` (stereo unspecified), the inhibition is -8.28%.
With `COC(=O)c1cc(NC(=O)c2oc(=O)c3ccccc3c2-c2ccccc2)cc(C(=O)OC)c1`, the inhibition amounted to 4.29%.
Next, `Cc1ccc(NC(=O)CN2C(=O)CSc3ccc(S(=O)(=O)N4CCCC4)cc32)cc1F`: -14.1%; `CCc1ccc(NC(=O)c2cc(S(=O)(=O)NC3CCCC3)ccc2F)cc1`: 11.5%.
As for `COc1cc(OC)c(NC(=O)c2nnn(Cc3ccc(C)cc3)c2N)cc1Cl`, the inhibition amounted to 12.7%.
Turning to `Cc1ccc(CN2CCN(C(=O)c3ccco3)CC2)cc1`, the inhibition is active: 82.5%.
To `COc1ccc(CCNC(=O)CN(c2ccccc2OC)S(=O)(=O)c2ccc(C)cc2)cc1` belongs -8.96%; to `COC(=O)c1c(NC(=O)c2cc(=O)c3ccc(C)c(C)c3o2)sc2c1CCCC2`, -3.93%; to `COCCCNC(=O)Cn1c(=O)n(Cc2ccc(C(=O)NCc3ccc(C)cc3)cc2)c(=O)c2ccccc21`, -8.23%.
Regarding `O=C(NCc1ccccc1Br)C1CCCN(C(=O)N2CCOc3ccccc32)C1` (stereo unspecified), the inhibition is -15%.
Turning to `Cc1ccc(NC(=O)CSc2nc(C)c(Cc3ccccc3)c(=O)[nH]2)cc1`, the inhibition was found to be 4.2%.
For the compound `COC(=O)c1ccc(NC(=O)CSc2nc3ccc(OC)cc3[nH]2)cc1`, the inhibition came to 13.5%.
To `COc1ccc(-c2cc3nc(-c4ccccc4)cc(C(F)(F)F)n3n2)cc1` belongs -0.387%; to `CCOc1ccc(NC(=O)CCC(=O)NNC(=O)COc2ccccc2C)cc1`, active: 36.3%; to `COc1ccc(CCNC(=O)Cc2c(C)c3c(cc(C)c4c(C)coc43)oc2=O)cc1`, 27.6%.
Next, `CSc1ccc(CNC(=O)CCn2ccc3cc(S(=O)(=O)N4CCC(C)CC4)ccc32)cc1`: 4.41%; `COc1ccc(N2CCN(C(=O)c3cnc(N4CCCC4)nc3C)CC2)cc1`: 0.945%; `CC1=C(c2ccc(C)cc2)S(=O)(=O)N(Cc2ccc(C(=O)NCc3cccc(C)c3)cc2)C1=O`: 0.178%.
Regarding `COc1ccccc1CNS(=O)(=O)c1ccc2[nH]c3c(c2c1)CCCCC3`, the inhibition was 1.98%.
To `FC(F)(F)c1cccc(N2CCN(Cc3cccnc3)CC2)c1` belongs active: 75.8%.
Next, `CCC(Sc1nc2ccccc2c2nc(CCc3c(C)n[nH]c3C)nn12)C(=O)Nc1ccc(F)cc1` (stereo unspecified): -12%.
Turning to `Cc1c(Cl)cccc1NC(=O)N1CCC(CN2CCCC2)CC1`, the inhibition is 10.4%.
Consider `COc1cccc(-n2nnc3c(sc4nc(C)cc(C)c43)c2=O)c1`, for which the inhibition is -9.27%.
Consider `COc1ccc2oc(=O)c(-c3nc(-c4cc(OC)c(OC)c(OC)c4)no3)cc2c1`, for which the inhibition was 8.57%.
To `CCN(CC)CCNC(=O)c1ccc(N2CCCCC2)c(NS(=O)(=O)c2ccc(C)cc2)c1` belongs active: 56.2%; to `O=C(CNS(=O)(=O)c1cccs1)N1CCN(c2ccccc2Cl)CC1`, -0.0896%; to `Cc1ccc(C(=O)N/N=C\C=C\c2ccccc2[N+](=O)[O-])cn1`, active: 46.8%.
Next, `O=C(Cn1cc(SCc2cccc(F)c2)c2ccccc21)N1CCCC1`: 13.5%; `Cc1cc2oc(C(=O)Nc3sc4c(c3C(=O)NCc3ccco3)CCC4)cc(=O)c2cc1C`: 2.5%; `Cc1ccc2c(CNCc3cccc(Cl)c3)c(C(=O)O)n(Cc3ccc(F)cc3Cl)c2c1`: 11.1%.
Consider `Cc1ccc(C(=O)Nc2ccc3nc(SCC(=O)N4CCc5ccccc54)sc3c2)cc1`, for which the inhibition was determined as 5.54%.
In the case of `CCOC(=O)c1c(C)[nH]c(C)c1S(=O)(=O)N1CCC(C(=O)N2CCN(c3cccc(C)c3)C(C)C2)CC1` (stereo unspecified), the inhibition came out at 11.2%.
For `Cc1nc2ccccn2c(=O)c1CCN1CCC(C(=O)c2ccc(F)cc2)CC1`, the inhibition was active: 94.8%.
To `CCCOc1ccc(C2c3c(oc4ccccc4c3=O)C(=O)N2c2ccc(C)cn2)cc1OCC` (stereo unspecified) belongs 4.77%; to `O=C(Nc1ccc(C(F)(F)F)cc1)c1cc(S(=O)(=O)NC2CCCCCC2)ccc1F`, 10.4%.
To `CCOC(=O)c1ccc(CN(Cc2ccc(F)cc2)S(=O)(=O)c2ccc(F)cc2)cc1` belongs 17.3%.
Next, `Cc1ccc(C)c(NC(=O)Nc2nnc(N(CC(C)C)CC(C)C)s2)c1`: 8.63%.
Take `Cc1ccc(CCNC(=O)c2ccc3c(=O)n(-c4ccc(C)cc4)c(=O)[nH]c3c2)cc1`: the inhibition is 0.293%.
In the case of `Cc1ccccc1S(=O)Cc1ccc(C(=O)NC2CCCCCC2)o1` (stereo unspecified), the inhibition is -9.25%.
Next, `Cc1ccc(NC(=O)c2nc(S(C)(=O)=O)ncc2N(Cc2ccco2)Cc2ccccc2F)c(C)c1`: -22.8%; `CCN(Cc1ccccc1)C(=O)CCS(=O)(=O)c1cc2c(cc1Cl)NC(=O)CO2`: 19.9%; `NCCC(=O)N1c2ccccc2Sc2ccc(Cl)cc21`: active: 48.1%.
With `Cc1nc2scc(C)n2c(=O)c1S(=O)(=O)Nc1cccc(O)c1`, the inhibition is -17.5%.
Turning to `CCOc1ccc(OCC)c(NC(=O)c2nnn(Cc3cc(Br)ccc3OC)c2N)c1`, the inhibition was -8.54%.
Regarding `COCCCNC(=O)c1cn(CC(C)C)c(=O)c2c1c1ccccc1n2C`, the inhibition was found to be 10.7%.
Next, `COCCn1c(CNC(=O)c2cccc(N(C)C)c2)nc2cccnc21`: 5.62%.
As for `CC(=O)c1ccc(N2CCN(C(=O)C3CCN(S(=O)(=O)c4ccc(Br)s4)CC3)CC2)cc1`, the inhibition was -7.38%.
In the case of `COc1ccccc1N1CCN(C2C(=O)c3ccccc3N2C(C)=O)CC1` (stereo unspecified), the inhibition is -2.21%.
Next, `CCOc1ccc(S(=O)(=O)NCC(c2ccc(N(C)C)cc2)N2CCCC2)cc1` (stereo unspecified): 10.2%; `Cc1ccc(-c2cn3c(n2)sc2cc(C(=O)NCCC4=CCCCC4)ccc23)c(C)c1`: 13%.
To `Cc1ccc(N2C(=O)C(CC(=O)Nc3ccc(F)cc3)N(CCC3=CCCCC3)C2=O)cc1` (stereo unspecified) belongs -13.7%; to `CCOc1ccc(-c2nnc(SCC(=O)Nc3ccccc3C(F)(F)F)o2)cc1`, 2.39%.
As to `CCCCN1CC(c2nc3ccccc3n2CCCCOc2ccccc2C)CC1=O` (stereo unspecified), the inhibition was -3.26%.
For `Cc1c(NC(=O)CSCc2ccc(Br)cc2)c(=O)n(-c2ccccc2)n1C`, the inhibition was active: 42.4%.
To `CC(=O)OC1=CN(Cc2ccccc2)S(=O)(=O)c2ccccc21` belongs -2.81%; to `COc1ccc(OC)c(S(=O)(=O)NCCc2sc(-c3cccnc3)nc2C)c1`, 9.89%.
For the compound `O=C(c1ccc2c(c1)N(Cc1ccc(Cl)cc1)C(=O)c1ccccc1S2(=O)=O)N1CCCCCC1`, the inhibition stood at 13.3%.
To `CCCN(Cc1cccs1)C(=O)Nc1cc(C)ccc1OC` belongs -9.67%; to `Cc1cccc(C)c1Nc1c(-c2ccccc2Cl)nc2cnccn12`, 5.26%.
`COc1ccccc1N1CCN(c2nc3ccc(C(=O)c4ccccc4)cc3n3c(C)nnc23)CC1`: the inhibition amounted to 2.01%.
Next, `Cc1ccc(-c2onc(C)c2C)cc1S(=O)(=O)NCc1cccs1`: 7.15%; `COc1ccc(OC)c(CNC(=O)C2CCN(S(=O)(=O)N3CCCCC3)CC2)c1`: 12.5%; `CCc1nn(CC(=O)Nc2ccc(C)c(F)c2)c(=O)c2cc3cc(C)ccc3n12`: -0.469%.
Take `COc1cccc(NC(=O)c2c(-c3ccc(C)cc3)nnc3ccccc23)c1`: the inhibition came out at 10.4%.
In the case of `Cc1ccc(C)c(Cn2c(=O)n(-c3ccc(Cl)cc3)c(=O)c3c4c(sc32)CCC4)c1`, the inhibition was -1.52%.
To `Cc1ccc(CN2CCN(Cc3ccc(C)s3)CC2CCO)cc1` (stereo unspecified) belongs active: 69.3%; to `Cc1cc(C)c(S(=O)(=O)Nc2ccc3oc4c(c3c2)CCCC4)cc1C`, -3%.
